Experimental findings from the supplement of paper PMC4166925 are described below.

± gives the standard deviation of the averaged measurements. Whole data set: some 33,000 sequences, median “E-score (dimensionless, -0.5 to 0.5)” near -0.049, cut for the highest 2% near 0.37. This is one part of the list.

This assay deals with T1, PmTbr T-box DNA-binding domain (GST fusion).
T1 sequence: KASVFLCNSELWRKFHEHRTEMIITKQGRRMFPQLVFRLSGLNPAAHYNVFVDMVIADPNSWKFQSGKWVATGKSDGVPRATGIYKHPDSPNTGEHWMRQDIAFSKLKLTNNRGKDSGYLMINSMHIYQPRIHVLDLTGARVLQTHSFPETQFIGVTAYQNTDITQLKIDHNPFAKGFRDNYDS
As to the kind of experiment: PBM E-score of 8-mer (E-score (dimensionless, -0.5 to 0.5)); Tbr is Tbrain of the sea star Patiria miniata (Pm) or the sea urchin Strongylocentrotus purpuratus (Sp); higher = stronger binding preference; most listed sequences are background and not binding sites. The settings on record: the construct has about 5 more residues each side. In outline:
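GST-fused Tbr T-box DNA-binding domains (the whole T-box plus about five flanking residues) were expressed in BL21 E. coli at 20 °C and purified by glutathione affinity chromatography. Universal Agilent oligonucleotide arrays were made double-stranded by primer extension, incubated with 200 nM protein in PBS (pH 7.5), then scanned and quantified. Every ungapped 8-mer was scored from probe intensities. The Universal PBM Analysis Suite gave each word an enrichment E-score, averaged over duplicate arrays.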
As for CTTGTAAC, the “PBM E-score of 8-mer” value turned out to be 0.0484 ± 0.04.

Take AGGTTACG: the “PBM E-score of 8-mer” value is 0.036 ± 0.069.

As for CTCGAGTA, the “PBM E-score of 8-mer” value is -0.107 ± 0.039.

Consider ACATTAGT, for which the “PBM E-score of 8-mer” value was -0.145 ± 0.042.

As to GTAAGCAA, the “PBM E-score of 8-mer” value is -0.113 ± 0.031.

Consider CCGCAGTA, for which the “PBM E-score of 8-mer” value was -0.0657 ± 0.021.

For the sequence TACGAGGA, the “PBM E-score of 8-mer” value is -0.306 ± 0.018.

With AATACTTA, the “PBM E-score of 8-mer” value is -0.153 ± 0.085.

On to ATACTTAA, for which the “PBM E-score of 8-mer” value is -0.187 ± 0.096.

Take TAATTCGA: the “PBM E-score of 8-mer” value was -0.0911 ± 0.044.

In the case of CTTTTGGC, the “PBM E-score of 8-mer” value was found to be 0.0565 ± 0.0061.

AATGCAAC: the “PBM E-score of 8-mer” value was -0.118 ± 0.034.

Take CTGACATC: the “PBM E-score of 8-mer” value is -0.0976 ± 0.035.

Regarding ATTTCAGC, the “PBM E-score of 8-mer” value is -0.136 ± 0.06.

Take CAGTTTAA: the “PBM E-score of 8-mer” value is -0.0321 ± 0.037.

With ACCTGGGA, the “PBM E-score of 8-mer” value was 0.102 ± 0.0023.

As for AATGTGGA, the “PBM E-score of 8-mer” value is -0.0139 ± 0.042.

With CATTCAGG, the “PBM E-score of 8-mer” value amounted to 0.0358 ± 0.077.

On to ACAGGCAA, for which the “PBM E-score of 8-mer” value was -0.269 ± 0.037.

As to CATAGGGC, the “PBM E-score of 8-mer” value is -0.078 ± 0.024.

Take GACGGGTA: the “PBM E-score of 8-mer” value was -0.00653 ± 0.016.

Consider ATTGCCAA, for which the “PBM E-score of 8-mer” value came to 0.00956 ± 0.072.

As to AGAGCGGC, the “PBM E-score of 8-mer” value is -0.0276 ± 0.0046.

Take ATATGATC: the “PBM E-score of 8-mer” value was -0.284 ± 0.078.

On to GCCAAAGA, for which the “PBM E-score of 8-mer” value was -0.093 ± 0.06.

GTGAAGCA: the “PBM E-score of 8-mer” value is 0.118 ± 0.0054.

Regarding GAATGCGC, the “PBM E-score of 8-mer” value is -0.052 ± 0.077.

Consider CGGTGTGA, for which the “PBM E-score of 8-mer” value is 0.451 ± 0.0064.

Take CCTGGGGA: the “PBM E-score of 8-mer” value came out at 0.131 ± 0.015.

Consider ATGACTAA, for which the “PBM E-score of 8-mer” value is -0.173 ± 0.031.

For the sequence ACCGATGC, the “PBM E-score of 8-mer” value was -0.0502 ± 0.0062.

As to CAAGAGCG, the “PBM E-score of 8-mer” value was -0.102 ± 0.013.

With GTAGACAC, the “PBM E-score of 8-mer” value was 0.337 ± 0.013.

On to CAGGTAAA, for which the “PBM E-score of 8-mer” value was -0.0189 ± 0.11.

With CACACCGA, the “PBM E-score of 8-mer” value was 0.193 ± 0.0051.

Consider GGTTGACA, for which the “PBM E-score of 8-mer” value is 0.3518 ± 0.0019.

On to ACATAACT, for which the “PBM E-score of 8-mer” value was -0.148 ± 0.022.

As to GCTGAGCC, the “PBM E-score of 8-mer” value is -0.116 ± 0.11.

Take AAGAAAGG: the “PBM E-score of 8-mer” value is -0.198 ± 0.12.

As for AGCTTCAG, the “PBM E-score of 8-mer” value was determined as 0.0462 ± 0.017.

As to AGAAAATG, the “PBM E-score of 8-mer” value was -0.0429 ± 0.12.

Regarding CATGCGAG, the “PBM E-score of 8-mer” value was 0.128 ± 0.045.

ATCGAAGC: the “PBM E-score of 8-mer” value was -0.217 ± 0.051.

On to ACAGGGAT, for which the “PBM E-score of 8-mer” value is -0.169 ± 0.021.

For the sequence ACCAACCA, the “PBM E-score of 8-mer” value came to 0.116 ± 0.0098.

For the sequence CAGGGACC, the “PBM E-score of 8-mer” value is -0.32 ± 0.047.

In the case of CGTCGTTC, the “PBM E-score of 8-mer” value stood at 0.134 ± 0.0037.

For the sequence AGCCCCAT, the “PBM E-score of 8-mer” value was -0.228 ± 0.068.

CCATGGGA: the “PBM E-score of 8-mer” value was -0.0559 ± 0.0052.

Turning to CTTCCGTC, the “PBM E-score of 8-mer” value was determined as 0.0388 ± 0.046.

CATGAGAA: the “PBM E-score of 8-mer” value was -0.0999 ± 0.071.

Consider CCTGGGTA, for which the “PBM E-score of 8-mer” value was -0.1 ± 0.024.

On to CCATTCAC, for which the “PBM E-score of 8-mer” value was 0.231 ± 0.025.

Regarding AAAACCCT, the “PBM E-score of 8-mer” value was -0.28 ± 0.093.

CCGGGGCA: the “PBM E-score of 8-mer” value is -0.143 ± 0.072.

Take CCCATTAC: the “PBM E-score of 8-mer” value was -0.13 ± 0.025.

As for GGGCCGAC, the “PBM E-score of 8-mer” value was -0.134 ± 0.1.

For CCATCTAG, the “PBM E-score of 8-mer” value turned out to be 0.000375 ± 0.038.

Turning to CGTTTACA, the “PBM E-score of 8-mer” value was determined as 0.148 ± 0.017.

For GATACTGA, the “PBM E-score of 8-mer” value is -0.0567 ± 0.046.

With GCTGCTAC, the “PBM E-score of 8-mer” value is -0.0028 ± 0.049.

Take CTTGCTAA: the “PBM E-score of 8-mer” value amounted to 0.21 ± 0.087.

With ACTCGGCG, the “PBM E-score of 8-mer” value came out at 0.0119 ± 0.037.

On to ACCAAGAT, for which the “PBM E-score of 8-mer” value was -0.102 ± 0.017.

For AGTGAAGG, the “PBM E-score of 8-mer” value is -0.0333 ± 0.024.

Turning to ACCGTATG, the “PBM E-score of 8-mer” value was -0.0304 ± 0.011.

On to CCACCAAA, for which the “PBM E-score of 8-mer” value stood at 0.104 ± 0.094.

In the case of GATGGGCA, the “PBM E-score of 8-mer” value is -0.0747 ± 0.034.

As for ACAGTCCA, the “PBM E-score of 8-mer” value was -0.158 ± 0.022.

TAATGCTA: the “PBM E-score of 8-mer” value is -0.257 ± 0.036.

With CAAGTCAA, the “PBM E-score of 8-mer” value worked out at 0.0483 ± 0.043.

Turning to GGTTCCTA, the “PBM E-score of 8-mer” value was -0.281 ± 0.071.

Take ACAAGAGG: the “PBM E-score of 8-mer” value was -0.108 ± 0.048.

With AGCTTGAG, the “PBM E-score of 8-mer” value was -0.24 ± 0.019.

With CCGCGGCA, the “PBM E-score of 8-mer” value turned out to be 0.00579 ± 0.04.

As for CAACCATG, the “PBM E-score of 8-mer” value was 0.0922 ± 0.084.

Consider GTGGCTCA, for which the “PBM E-score of 8-mer” value was 0.0273 ± 0.048.

On to ATCTCCAG, for which the “PBM E-score of 8-mer” value is -0.0944 ± 0.0015.

On to AAAGCACC, for which the “PBM E-score of 8-mer” value is -0.113 ± 0.045.

Take ATCTGTGA: the “PBM E-score of 8-mer” value was found to be 0.282 ± 0.0073.

CGTATGAG: the “PBM E-score of 8-mer” value was determined as 0.0547 ± 0.0055.

On to CGCTTCCC, for which the “PBM E-score of 8-mer” value was 0.0497 ± 0.058.

As to AAAATCTG, the “PBM E-score of 8-mer” value came out at 0.0885 ± 0.15.

In the case of TAGTAGCA, the “PBM E-score of 8-mer” value was -0.106 ± 0.031.

In the case of CGTAAGGA, the “PBM E-score of 8-mer” value is -0.017 ± 0.026.

For AGAGTTCG, the “PBM E-score of 8-mer” value is -0.201 ± 0.018.

On to GTGACGTA, for which the “PBM E-score of 8-mer” value is 0.147 ± 0.025.

Consider AGTTCCAG, for which the “PBM E-score of 8-mer” value is -0.106 ± 0.02.

With CCTCTCCC, the “PBM E-score of 8-mer” value came to 0.0427 ± 0.042.

Take ATCGATGA: the “PBM E-score of 8-mer” value is -0.173 ± 0.068.

AGTGCCGC: the “PBM E-score of 8-mer” value was 0.169 ± 0.017.

For the sequence ACCTACGA, the “PBM E-score of 8-mer” value is -0.0325 ± 0.03.

Turning to CCAGTCGC, the “PBM E-score of 8-mer” value amounted to 0.017 ± 0.041.

CCTCAGAA: the “PBM E-score of 8-mer” value was -0.0721 ± 0.042.

For the sequence CACTGATA, the “PBM E-score of 8-mer” value stood at 0.121 ± 0.011.

Regarding CAGGCCTA, the “PBM E-score of 8-mer” value is -0.235 ± 0.05.

Turning to GATGGGAA, the “PBM E-score of 8-mer” value is -0.0546 ± 0.09.

Take CCCCAACA: the “PBM E-score of 8-mer” value was 0.152 ± 0.088.

CCTGAAGG: the “PBM E-score of 8-mer” value is -0.24 ± 0.068.

Regarding GCACAAAC, the “PBM E-score of 8-mer” value was -0.0553 ± 0.052.

For the sequence CGCCCCGA, the “PBM E-score of 8-mer” value came to 0.112 ± 0.066.

For the sequence AGGTTAAG, the “PBM E-score of 8-mer” value was -0.186 ± 0.083.

Consider CTAGCGAA, for which the “PBM E-score of 8-mer” value worked out at 0.182 ± 0.037.

As to AGATGAAA, the “PBM E-score of 8-mer” value is -0.162 ± 0.14.

For CGGTAACG, the “PBM E-score of 8-mer” value came out at 0.148 ± 0.027.

Take GGCGAGCC: the “PBM E-score of 8-mer” value is -0.113 ± 0.022.

On to CGGCCTAA, for which the “PBM E-score of 8-mer” value is -0.0861 ± 0.036.

As for CAGACGCA, the “PBM E-score of 8-mer” value is -0.238 ± 0.016.

Regarding CATCGATC, the “PBM E-score of 8-mer” value is -0.26 ± 0.0036.

With CGGTGGTC, the “PBM E-score of 8-mer” value was -0.162 ± 0.035.
